Results as given in PMC4336329 (PLoS ONE, 2015).
The whole screen tested about 310,000 compounds, of which about 2,200 (0.71%) showed an effect of 50% or more. The effect is printed as a negative number. This is one part of the list.

Target: human ether-à-go-go-related gene (hERG) potassium channel (human, UniProt Q12809)
Assay: primary screen, population patch clamp on CHO cells stably expressing hERG

Sequence of human ether-à-go-go-related gene (hERG) potassium channel (Q12809 whole entry, looked up): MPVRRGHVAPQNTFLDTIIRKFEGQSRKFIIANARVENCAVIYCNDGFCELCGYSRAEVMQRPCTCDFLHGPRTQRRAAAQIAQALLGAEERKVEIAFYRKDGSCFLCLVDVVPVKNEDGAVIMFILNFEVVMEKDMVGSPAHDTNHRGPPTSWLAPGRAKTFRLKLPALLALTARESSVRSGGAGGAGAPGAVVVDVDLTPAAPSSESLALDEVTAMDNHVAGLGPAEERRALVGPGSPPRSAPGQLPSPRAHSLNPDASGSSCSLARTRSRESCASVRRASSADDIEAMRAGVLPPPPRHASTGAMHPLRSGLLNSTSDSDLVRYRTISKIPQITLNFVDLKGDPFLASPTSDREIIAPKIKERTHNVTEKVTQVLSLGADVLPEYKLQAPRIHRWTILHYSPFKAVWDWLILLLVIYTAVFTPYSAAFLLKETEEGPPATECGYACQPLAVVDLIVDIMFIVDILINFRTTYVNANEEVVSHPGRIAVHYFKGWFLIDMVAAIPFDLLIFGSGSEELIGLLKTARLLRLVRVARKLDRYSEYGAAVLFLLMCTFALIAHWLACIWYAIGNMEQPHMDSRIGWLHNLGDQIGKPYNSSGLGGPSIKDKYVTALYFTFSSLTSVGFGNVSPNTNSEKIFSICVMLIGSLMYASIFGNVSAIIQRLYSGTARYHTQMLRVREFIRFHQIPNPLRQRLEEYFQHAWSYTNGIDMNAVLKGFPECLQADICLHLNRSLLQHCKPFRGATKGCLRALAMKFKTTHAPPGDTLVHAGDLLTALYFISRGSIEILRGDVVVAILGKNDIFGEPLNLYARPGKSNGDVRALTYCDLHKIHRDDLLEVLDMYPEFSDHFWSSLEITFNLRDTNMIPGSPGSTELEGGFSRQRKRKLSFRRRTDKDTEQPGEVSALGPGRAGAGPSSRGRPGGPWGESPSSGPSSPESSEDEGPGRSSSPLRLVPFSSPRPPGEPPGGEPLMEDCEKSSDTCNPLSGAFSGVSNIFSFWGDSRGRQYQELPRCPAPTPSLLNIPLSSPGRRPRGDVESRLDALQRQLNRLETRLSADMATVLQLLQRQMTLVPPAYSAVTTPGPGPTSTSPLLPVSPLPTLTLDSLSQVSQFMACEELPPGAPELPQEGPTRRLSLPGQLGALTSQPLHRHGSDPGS

SMILES	hERG current change (%, negative = inhibition) at 1uM [%]
Clc1ccc(CSc2cc3c(nn2)-c2ccccc2CC3)cc1	9.48
Cc1cc(NC(=O)CSc2nc(-c3cccs3)nc3ccccc23)no1	12.5
CC(C)C[C@H](NC(=O)c1nc[nH]c1C(=O)N[C@@H](CCCCNC(=O)OC(C)(C)C)C(=O)OC(C)(C)C)C(=O)OC(C)(C)C	12.7
Cc1ccc2nc(C(O)C(O)c3nc4ccc(C)cc4[nH]3)[nH]c2c1 (stereo not shown)	-4.84
CCN1C(=O)[C@@H]2[C@@H](c3ccc(-c4ccc(C(C)=O)cc4)c(OC)c3)N3CCC[C@@]3(C(=O)OC)[C@@H]2C1=O.O=C(O)C(F)(F)F	2.93
CCOC(=O)Cc1csc(NC(=O)CCCc2ccccc2)n1	14.8
CCOC(=O)CSc1nc2sc3c(c2c(=O)[nH]1)CC(C)(CC)OC3 (stereo not shown)	8.73
Nc1nnc(CSCc2ccccc2)s1	1.3
COc1cc(/C=N/Nc2nc(-c3ccc(S(=O)(=O)N(C)C)cc3)cs2)ccc1O	6.36
CCCCN(C(=O)c1cccc(N2C(=O)c3ccccc3C2=O)c1)c1c(N)n(CC(C)C)c(=O)[nH]c1=O	-3.8
O=C(Nc1ccc(OC(F)(F)F)cc1)c1ccc(-n2cncn2)nc1	0.916
Cc1ccc(-n2nnc3c(=O)n(CC(=O)N4CCC(C)CC4)cnc32)cc1	-20
Cc1cccc(C)c1NC(=O)CN1CCc2ccccc2C1	15.9
COc1ccc(-n2c(SCc3ccc(C#N)cc3)nnc2-c2ccccn2)cc1	-18.5
Nc1ccc(Oc2ccc3c(c2)OCO3)cc1	15.2
Cc1cccc(NC(=O)CCC(=O)N/N=C/c2ccco2)c1C	10
C=CCSc1nccc(-c2nn(-c3ccc(C)cc3)ccc2=O)n1	17.3
COc1ccc(-n2ccnc(SCC(=O)NCc3ccccc3Cl)c2=O)cc1	4.72
Cc1cnc(-c2nnc(N(C)C(=O)c3cccnc3)s2)cn1	10.2
CC(O)(C#CCN1CCCC1)c1ccccc1 (stereo not shown)	4.16
O=C(O)CCC(=O)N1CCC[C@H]1C(=O)O	-9.92
CCOc1ccccc1N(CC(=O)NCC1CCCO1)C(=O)CCC(=O)Nc1nccs1 (stereo not shown)	4.55
CCCCn1c(NC(=O)c2ccc(F)cc2)c(C#N)c2nc3ccccc3nc21	7.71
O=C(COC(=O)c1ccc(Cl)nc1)Nc1ccc(S(=O)(=O)N2CCCC2)cc1	0.509
O=C(O)C1CCCN(S(=O)(=O)c2ccc(Cl)s2)C1 (stereo not shown)	3.79
O=C1CC(c2ccc(F)cc2)Cc2nc(N3CCN(c4ccccc4)CC3)ncc21 (stereo not shown)	7.55
COc1ccc(NC(=O)N2CCCC(C(=O)Nc3ccccc3OC)C2)cc1 (stereo not shown)	7
O=C(O)CSCc1nc2cccnc2n1C1CCCCC1	17.1

SMILES	hERG current change (%, negative = inhibition) at 1uM [%]
Cc1[nH]c2ccc(-c3nnc(SCC(=O)NCc4ccco4)n3Cc3ccccc3)cc2c1C	10.1
COc1ccccc1-c1cc(C(=O)NCc2ccco2)no1	2.54
O=C/C(=C\Nc1ccc(Cl)cn1)c1nc2ccccc2o1	19.2
CCN(CC(=O)Nc1ccc(NC(C)=O)cc1)C(=O)c1cc(-c2ccccc2)nn1-c1ccccc1	9.47
CCc1c(C)nc(SCC(=O)NNC(=O)Cc2ccc(OC)cc2)[nH]c1=O	1.95
O=C(CN1CCCC1=O)N1CCOCC1	4.59
NC(=O)C1CCCN(Cc2c(C(=O)N3CCc4ccccc4C3)nc3ccc(Cl)cn23)C1 (stereo not shown)	7.5
CN(CC(=O)Nc1ccc(F)c(F)c1F)C(=O)Cc1ccc2c(c1)OCCO2	8.2
O=C(Cc1ccccc1F)Nc1ccc(S(=O)(=O)N2CCCCC2)cc1	8.87
COc1ccc2[nH]c(=O)c(CN(C)C(=O)C3CCCCC3)cc2c1	6.86
O=C(COc1ccc(Cl)cc1Br)NNC(=O)C(=O)N1CCCCC1	13.7
Cc1c(Cl)cccc1NC(=S)NCc1ccc(Cl)cc1	1.52
COc1ccc(C(C(=O)NC(C)(C)C)N(Cc2ccc(F)cc2)C(=O)CCC(=O)Nc2cc(C)on2)cc1 (stereo not shown)	3.49
Nc1nc(SCC(=O)NNc2c(Cl)cc(Cl)cc2Cl)n[nH]1	12
O=C(O)CCCN1C(=O)c2ccc(C(=O)c3cccc([N+](=O)[O-])c3)cc2C1=O	9.19
CC(C)c1ccc(NC(=O)Cc2cn(C)c3ccccc23)cc1	7.62
Cc1ccc(-c2nc(CS(=O)(=O)CC(=O)NCCCN3CCN(C)CC3)c(C)o2)cc1	14.4
O=c1[nH]cnc2c1sc1nc(-c3ccccc3)c3c(c12)CCCC3	5.09
O=C1OCC(c2ccccc2)=C1c1ccccc1[N+](=O)[O-]	2.22
Cc1nnc(SCC(=O)NC(=O)Nc2ccc3c(c2)OCCO3)s1	7.61
O=C(Nc1cccc2ccccc12)c1ccc(Cn2cc(Cl)cn2)cc1	6.3
Cc1ccc(S(=O)(=O)N2CCOCC2)cc1NC(=O)CN1CCN(C)CC1	5.77
Cc1ccc(S(=O)(=O)/N=C(/c2ccc(F)cc2)N2CCCC2)cc1	16.1
CC(C)(C)n1nnnc1C(c1ccccc1F)N(Cc1ccco1)CC1CCCO1 (stereo not shown)	7.72
COc1ccc2c(c1)c(C(=O)O)c(C)n2CC(C)C	-2.31
Nc1cc(-c2cccc(F)c2)nn1S(=O)(=O)c1cccc2nsnc12	8.09
Cc1cccc(OCCCC(=O)NNC(=O)c2ccc(F)cc2)c1	13.2
